Measurements reported in the supplement of paper PMC11417369.
The other results are listed elsewhere or left out.

test system: PfAP2-HC AP2 domain (GST-tagged); experiment: gcPBM binding intensity (ln(normalized median fluorescence intensity)); higher = stronger DNA binding
Method in brief: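 Plasmodium falciparum DNA-binding domains carrying a GST tag were expressed in E. coli and applied for 1 h, at about 25 μg on average, to an Agilent 4 × 180k array. The array held primer-extended double-stranded 36-bp intergenic genomic probes together with negative controls, and binding took place in 1× PBS with 1% milk, 0.2 mg/ml BSA, 0.5% salmon testes DNA and 0.03% Triton X-100. An Alexa488 anti-GST antibody detected bound protein, and the array was scanned at 488 nm. Binding intensity is taken as the highest Masliner-normalised natural-log median intensity across replicate spots of either probe orientation.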

| Sequence | gcPBM binding intensity (ln) |
| --- | --- |
| ACATAAATAATAAAAACACACATATGTACAGATATA [CACACA_site5112] | 10.2 |
| ATGTAGATATATATATGTACTAATTAGTAGTTTACG [XGTACX_site6275] | 10 |
| AATGGTACATGATACACACACGCACATATATATATT [CACACA_site3425] | 10.4 |
| AGAAAAAAAAAACACACACACACACCCTCAATATAA [CACACA_site39] | 10.5 |
| AAATAGATAAACTAAACACACAAAAAAAAAAAAAAT [CACACA_site1179] | 10.2 |
| TTATATGAAAAAATATGTACGTATAATGAGAAATAT [XGTACX_site8987] | 9.74 |
| GTTATAAATGCATATACACACATACGTACATACATA [CACACA_site7655] | 9.89 |
| TCATTAATCAGGTATGCATGCATAACTATTAAAAAT [TGCATGCA_site90] | 9.59 |
| TCTTTTTTTTTTATTTGTACTTATTTTTTTCAAAAA [XGTACX_site3403] | 9.68 |
| AAAATAACGAGTCAAACACACATATTTATATTTATA [CACACA_site7050] | 9.86 |
| TAATATAACTACATAACACACGAAAATATATGAATC [CACACA_site3628] | 10.1 |
| ACTTATAAAATAACATGTACAAATATTTATTATATA [XGTACX_site133] | 9.51 |
| AATATTTTTTTATAAACACACATATATATAAATATA [CACACA_site3524] | 9.53 |
| TAATAATTTATATATGCATGTCAAAATAATATTAAA [TGCATGCA_site12] | 9.35 |
| TATATAAATATAATATGTACATATAATATGTATATA [XGTACX_site8120] | 9.69 |
| TATATATTTTTATGTGTGCACTGTTTCATAAAAGAA | 9.61 |
| AAAAAAAAAAGGTGTACATGCAAAATAAATTCTTAA [TGCATGCA_site556] | 9.86 |
| TATGGTAACATATGCTGTACAATATAATATGTTTAA [XGTACX_site1601] | 9.59 |
| TAAACATAAATATACACACAAACATATATGTATTTT [CACACA_site1214] | 9.89 |
| AAATTATAAATACCTACACACTTATCAAAATAAATT [CACACA_site5280] | 9.83 |
| AAAAAAAAAAAACACACACACACACCGACAAAATAT [CACACA_site8411] | 10.8 |
| GATGATATATATTAGCGTACATGTATATATACCATT [XGTACX_site6404] | 9.7 |
| TAAATGAGAAGGACTGCACACTAAAATGGAAGGAGA [CACACA_site8449] | 9.92 |

| Sequence | gcPBM binding intensity (ln) |
| --- | --- |
| TATTTGTATATATGTGTGCACGTATAATCCATTAAA [GTGCAC_site9569] | 9.71 |
| AAAATTTCAAATAACACACACTAATATATATCTGTA [CACACA_site4904] | 10.1 |
| AATGAATATAGTACTGAATGTAATTTAAGGTTTTCC [CACACA_negctrl_site1548] | 9.76 |
| GCATAAATCAAACACACACACATATATATATATATA [CACACA_site2422] | 10.2 |
| TATAATGGATGCTAGCTGCACTAATAAGCAAAAATA | 9.6 |
| TATATTAAATATTACACACATACATTTAGTGTCAAA [CACACA_site1990] | 9.84 |
| TGGGAGCACAGACACACACACACACCGATATATATA [CACACA_site8001] | 11.3 |
| AACAAAATAAATGTATGTACATATATATATATATAT [XGTACX_site7974] | 9.99 |
| GTGGACGAAATAGTTGTAAATTTATGTGCAAACCTC [XGTACX_negctrl_site564] | 9.71 |
| ATATATATATCATATTGTACATACTTGTATTTATAT [XGTACX_site2432] | 9.89 |
| TCCTTACCTATTAAAGCATGCTCGAATATATATTTT [TGCATGCA_site53] | 9.74 |
| CACACAATGGCTAGCTGTACATAATATATATCTACA [XGTACX_site4691] | 9.62 |
| TAAAAACAAAAATGTTGTACATAATATAAAACAATT [XGTACX_site6380] | 9.76 |
| TATATAAATATACAAACACACATACAAACATATATA [CACACA_site4754] | 10.2 |
| GAAAATAAAATAAATGCATGTAAATTTAATGTAATG [TGCATGCA_site996] | 9.87 |
| AAAAAAAACGAACACACACACAAATATGTAAAAATA [CACACA_site6673] | 10.5 |
| ATATATATATTTACATGTACACATCTATATATAAAC [XGTACX_site5581] | 9.84 |
| TTTTTTTTTCATTATTGTACATTGAAACTTCATTTT [XGTACX_site6041] | 9.84 |
| AAAAAAAAAAAATGTGCATGCTATATATATATATAT [TGCATGCA_site727] | 10 |
| GAATATAAACATATTACACACATCTATCTGTACATT [CACACA_site5114] | 9.97 |
| TGGTATCAAAAGAATACACACACACCGACATATATA [CACACA_site9265] | 11.1 |
| TACATACATACATACACACACACATATAAATACATA [CACACA_site4626] | 10.6 |
| GTTTTATTTATTTCATGTACACAAAAAAGGTTTTAA [XGTACX_site6525] | 9.48 |

| Sequence | gcPBM binding intensity (ln) |
| --- | --- |
| TCTCTAACTTTTAATACACACAAATAAATAAATAAA [CACACA_site6245] | 9.53 |
| AATACATATATATATTGTACATATAGGGAAAAATTA [XGTACX_site2275] | 9.96 |
| AAAATAAAATAATAAAATAAAATAATAATAAAATAA [TGCATGCA_negctrl_site401] | 9.73 |
| GTGGGAAACATAAACACACACAAAAAGAAAAAATAG [CACACA_site4810] | 10.2 |
| ATATACGCATTAATAACACACAATATGATAACAAAT [CACACA_site3623] | 10.2 |
| AATATAATCTTTCAAAAGAAAAAGACTTCATGAAAA [CACACA_negctrl_site1331] | 9.35 |
| AAAATGTATGGAATGCTCTTTTTTAAGTATTATATA [GTGCAC_negctrl_site175] | 9.5 |
| TATTTTAATATTTGTAGTACAGATTGAAATGACGAA [XGTACX_site4805] | 9.56 |
| TTTATTTATTATTAAAGTACTAAAATATATTATTAT [XGTACX_site4887] | 9.39 |
| ATACGTATTTTCTTTTGTACATATATATAAAATATT [XGTACX_site2675] | 9.7 |
| TATATTTATTAGTTTCGTACGTACAAAGTTATTTTT [XGTACX_site8847] | 9.7 |
| AATATTGCACCATTTTGTACATAATATATTCAAATA [XGTACX_site475] | 9.65 |
| ACAAAATTGATATATGCACACATATATATATTAAAT [CACACA_site8152] | 9.85 |
| GTAGGTTTATATTGTAGTACATACAAACGTTAACAA [XGTACX_site5476] | 9.71 |
| TATTTTGTTCTTTCCACACACAAATACCTATCTTGT [CACACA_site7833] | 10.2 |
| TTTTTTTTTTGATGTTGTACATATATATTATATAAT [XGTACX_site2765] | 9.63 |
| GCTATTTATTTATATTGTACTTTTTTTTTTTTTTTT [XGTACX_site3624] | 9.59 |
| TTTTTTTTTGGGGGTGCATGCAAGACATATATTTAA [TGCATGCA_site228] | 9.65 |
| CATACATATATATATACACACATACATATATATACA [CACACA_site8165] | 10.4 |
| ATTCGTGAACTAGCCAAACACACGAAAAAAAAAAAA [CACACA_site3342] | 9.73 |
| ATGTAACATAGGAAATGTACATATAAATATAATTTA [XGTACX_site6452] | 9.77 |
| TTTTATTGATTATTCATAAATATGCTATTCATCTAA [CACACA_negctrl_site1084] | 9.6 |
| TTAGTATATTTTTCCTGTACGTACTCAGATACAAAT [XGTACX_site7397] | 9.6 |

| Sequence | gcPBM binding intensity (ln) |
| --- | --- |
| TACACATTATGTATCATACACACAAATAAATATATA [CACACA_site608] | 9.8 |
| TTAAATAATTTTTAATGTACATTAAATTTATTATTA [XGTACX_site261] | 9.36 |
| AAAAAGAATATAAGTAGTACAGTGCATATAATAATT [XGTACX_site617] | 10.2 |
| TTTTACTCTTAAAATAATAAAAAATATTCACATTTA [CACACA_negctrl_site1508] | 9.19 |
| AATTAATGTTTTGTCACACAGTATGATTATATATAT [CACACA_site6143] | 9.74 |
| TATAATTTTTTTAATACACACAAATATTTATATATA [CACACA_site3042] | 9.46 |
| AAGAGAAATGGGCACACACACACATATTATATATAT [CACACA_site1531] | 10.8 |
| TATATATACATATACGCATGTAAATTCAAAAGTAAA [TGCATGCA_site956] | 9.66 |
| TTCTCCATCAGATACTGTACATAATATATATAATAT [XGTACX_site8827] | 9.78 |
| TGTATAACCTGTGTTACACACATTAGAATTTATATA [CACACA_site6393] | 9.72 |
| GCATCATTTATTTGCACACCTATTATATACTTTTTA [CACACA_site2098] | 9.96 |
| TACATAAACTTTATAACACACACTTATATATATATA [CACACA_site1106] | 9.94 |
| TATATAAAGATATATACACACAAAAAAAAAAAAAAA [CACACA_site6778] | 9.7 |
| AATAATAACAAATGAACACACATATATATGAGCAAA [CACACA_site2121] | 9.96 |
| TTGATATAAAAAGAAAGTACTTTATAGATGTTTATT [XGTACX_site8144] | 9.64 |
| TATAAAAATATATATATATATATATATATATATATA [TGCATGCA_negctrl_site541] | 9.85 |
| TTCTACGTTTTAAAAAAAAAAAAAAAAAAAAAAAAA [XGTACX_negctrl_site6] | 9.16 |
| AATGTATTATGTAATAGTACGTATAATATCTTATTT [XGTACX_site3] | 9.69 |
| ATACATATCTATAATACACACATAAATGTAACATTT [CACACA_site7621] | 10 |
| ACATATTATAGGAATACACACAAAAACTTATCGGTA [CACACA_site7587] | 10.2 |
